Test results from ChEMBL document CHEMBL4888484, “Replenishing the malaria drug discovery pipeline: Screening and hit evaluation of the MMV Hit Generation Library 1 (HGL1) against asexual blood stage Plasmodium falciparum ,using a nano luciferase reporter read-out” (2022).
Several values for one entry are separate records, joined by “and”; a condition that tells them apart may be missing. Equal values may be shown once. Hit rate of the full screen: of about 150,000 compounds, about 540 (0.36%) showed an effect of 50% or more. Some of the results follow.

System: Plasmodium falciparum
Test: Primary screen in NF54 nanoGlo assay, in single point, at 2uM, 72h; a lower Z score goes with more inhibition
Assay type: functional, Erythrocyte
Settings: timepoint 72 hour

| Structure (SMILES) | % Inhibition | Z score | % Inhibition (2 µM) |
| --- | --- | --- | --- |
| CCCn1nccc1C(=O)NC[C@H]1Cc2ccccc2O1 | -16% | 2.08 | – |
| O=S(=O)(c1ccc(OC2CC2)cc1)N1CCn2nncc2C1 | -3% | 0.43 | – |
| O=C([C@@H]1CC(Cc2ccccc2Cl)=NO1)N1CCCCCC1 | 14% | -1.83 | – |
| CCC(CC)n1ncc2c1NC(=O)C[C@@H]2c1cccc2nsnc12 | -5% | 1.04 | – |
| O=C1NCCCCCN(Cc2c[nH]nc2-c2cccs2)[C@H]2CCC[C@@H]12 | 4% | -0.51 | – |
| COCC(=O)N1CC[C@@]2(CCCN(CC3CC3)C2=O)C1 | -13% | 1.87 | – |
| CCc1cccc(NC(=O)CN2CCC[C@H](n3cncn3)C2)c1 | -16% | 1.72 | – |
| CCC(C)C(NC(=O)Nc1cccc(OC)c1)C(=O)O (stereo not drawn) | -8% | 1.18 | – |
| O=C(NCCc1ccc(Cl)cc1)N1C[C@@H](F)[C@@H](F)C1 | 2% | -0.17 | – |
| CCn1nc(CO)c2c1CCN(S(=O)(=O)N(C)Cc1ccccc1)C2 | -8% | 0.91 | – |
| C[C@H](NC(=O)N(C)Cc1nnc[nH]1)c1cc(Cl)ccc1Cl | -4% | 0.64 | – |
| O=C(Cc1ccc(N(Cc2cccc(F)c2)C(=O)C2CCCC2)cc1)NCCN1CCCCC1 | 59% | -9.89 | – |
| COc1cc(C)nc(NC(=O)c2ccc(C)nc2C)n1 | 0% | -0.02 | – |
| COC(=O)Cc1nnc2cc(Cl)ccc2n1 | 6% | -0.93 | – |
| CCN(CC)C(=O)C1CCN(C2CCN(c3ccc(NC(=O)c4ccc(C)cc4C)cc3)CC2)CC1 | -3% | 0.58 | – |
| Cc1cc(O)nc(C(C)NC(C)c2cc(C)oc2C)n1 (stereo not drawn) | -47% | 5.46 | – |
| CCc1ccc(C(=O)N2CCC(N3C(=O)CC[C@H]3C(=O)NCc3ccccc3)CC2)cc1 | -9% | 1.57 | – |
| CCn1c(COC(=O)[C@H](C)N2C(=O)c3ccc(C)cc3C2=O)nc2cc(S(=O)(=O)N(C)C)ccc21 | -6% | 0.71 | – |
| OC[C@H]1CCCN1C1Cc2ccccc2C1 | -11% | 1.38 | – |
| Cn1cc(C(NC(=O)c2cc(-c3ccccc3F)n[nH]2)[C@H]2C[C@@H](O)C2)cn1 (stereo partly drawn) | -15% | 1.49 | – |
| C[C@@H](C(=O)Nc1scnc1C1CC1)n1cncn1 | -11% | 1.09 | – |

| Structure (SMILES) | % Inhibition | Z score | % Inhibition (2 µM) |
| --- | --- | --- | --- |
| O=C(NC[C@H]1CCCN1CC(F)(F)F)c1cnccn1 | -4% | 0.71 | – |
| O=C(Cc1n[nH]c(=O)c2ccccc12)Nn1cnc2ccccc2c1=O | -4% | 0.6 | – |
| CC(C)c1ccc2c(c1)CCC1C(C)(CNCc3ccc4c(c3)OCO4)CCCC21C (stereo not drawn) | 18% | -2.21 | – |
| C[C@@H]1C(=O)N(c2cnn(CC(F)F)c2)C(=O)N1C | 1% | -0.15 | – |
| CCCN1C(=O)[C@@H]2CC[C@H]1CN(C(=O)Cc1ccc(OC)c(OC)c1)C2 | -5% | 1.03 | – |
| C[C@@H](Cn1ncc2ccccc2c1=O)Nc1ncnc(N)c1Cl | -4% | 0.6 | – |
| Cc1cc(C(=O)N2CCc3nc(NC(=O)NC4CCCC4)sc3C2)no1 | -10% | 1.42 | – |
| CCc1onc(C)c1CN[C@@H](c1ccc(F)cc1)c1cccc(S(C)(=O)=O)c1 | 7% | -0.76 | – |
| CN1C(=O)CN(CC(=O)Nc2cccc(CCC(F)(F)F)c2)C1=O | -6% | 0.69 | – |
| CC(C)CN1CCO[C@@H](COC(=O)c2cc(C#N)cn2C)C1 | -9% | 1.72 | – |
| O=C(Cc1nc(Cc2ccc(F)cc2)n[nH]1)Nc1cc(F)cc(F)c1 | -16% | 2.1 | – |
| CC[C@H](C)OCC(=O)Nc1nc(-c2ccncc2)ns1 | -11% | 1.13 | – |
| CCOc1cccc(NS(=O)(=O)c2cscc2C(F)F)n1 | -7% | 1.25 | – |
| COC(=O)[C@H](Cc1nccn1C)NC(=O)CCC1CCCCCC1 | -8% | 1.29 | – |
| Cc1cccc(NC(=O)C2CCN(S(=O)(=O)c3c(C)nn(-c4ccccc4)c3C)CC2)c1 | 3% | -0.49 | – |
| O=C(c1c(F)cccc1F)N1C[C@@H](CN2CCCCC2)[C@@H](CO)C1 | 0% | -0.01 | – |
| CN1CCN([C@@H](CNC(=O)Nc2ccncc2)c2cccs2)CC1 | 2% | -0.27 | – |
| CCCN(CC(=O)N1CCN(S(=O)(=O)c2ccc3c(c2)CCCC3)CC1)CC(F)F | -7% | 0.91 | – |
| COc1cccc(C[C@@]2(C3CCNCC3)NC(=O)N(CC3CCC3)C2=O)c1 | 3% | -0.67 | – |
| CS(=O)(=O)c1ccc(CNC(=O)NC[C@H]2CCC3(CCCC3)O2)s1 | -5% | 1.01 | – |
| COc1ccc(-c2noc(CC3CCNCC3)n2)cc1 | – | – | -7% and 0% |

| Structure (SMILES) | % Inhibition | Z score | % Inhibition (2 µM) |
| --- | --- | --- | --- |
| CS(=O)(=O)N1C[C@H]2CCN(C(=O)c3cc4ccccc4[nH]3)C[C@@]2(CO)C1 | -11% | 1.25 | – |
| CCN(C(=O)c1ccoc1C)c1ccccc1 | -4% | 0.47 | – |
| Cc1nc(CN(C)C(=O)c2sc(C(C)C)nc2C)cs1 | -17% | 1.67 | – |
| Cc1[nH]c2ccccc2c1CCNS(=O)(=O)CCn1cnnn1 | -15% | 2.68 | – |
| CC(=O)N[C@H](CC1CCC1)C(=O)Nc1cccnc1C | -3% | 0.57 | – |
| COc1ccccc1Cn1c(=O)[nH]c2cc(-c3nc(-c4ccc(F)cc4)no3)ccc2c1=O | -9% | 0.99 | – |
| COc1ccc(C(=O)N2C(C(=O)NCC3CCCO3)COC23CCN(C(=O)c2ccc(F)cc2)CC3)cc1 (stereo not drawn) | 1% | -0.16 | – |
| Cc1csc([C@](O)(CC(=O)Nc2ccc3c(c2)OC(C)(C)O3)C(F)(F)F)n1 | -2% | 0.32 | – |
| CCc1csc(CNC(=O)c2ccc(N3CCN(C)[C@@H](CC)C3)nc2)n1 | 1% | -0.14 | – |
| CCc1nn(-c2ccc(OC)cc2)c(Oc2cccc(F)c2)c1CCC(=O)N(C)C(C)C | -17% | 1.74 | – |
| CC1CN(S(=O)(=O)C2CCCN(C(=O)OCc3ccccc3)C2)CC[S+]([O-])C1 (stereo not drawn) | -2% | 0.22 | – |
| COc1ccccc1-c1nc2cc(Cl)ccc2cc1CN(Cc1ccc2c(c1)OCO2)C(C)=O | 0% | 0.08 | – |
| CC(=O)Nc1c(C(C)(C)C)cc(C(C)(C)C)c(N)c1C | -8% | 0.95 | – |
| Cc1ccc(NC(=O)Cn2cnc3c(c2=O)CN(Cc2ccccc2)CC3)cc1F | -12% | 1.58 | – |
| COCC(C)(C)NC(=O)CCn1cnnn1 | 4% | -0.75 | – |
| N#Cc1cc2n(n1)CCCN(CC1=CCCCC1)C2 | -6% | 1.15 | – |
| O=C(Nc1cccc2cccnc12)N1CCCO[C@@H](CN2CCCCC2)C1 | -6% | 0.65 | – |
| COC(=O)[C@@H]1CC[C@@H](c2ccccc2)N1C(=O)c1cc(OC)ccn1 | -2% | 0.26 | – |
| COc1ccc([C@@H]2CCCN2C(=O)CCC(=O)c2ccccc2)cc1OC | -6% | 0.6 | – |
| CCCC1(CCC)NC(=O)N(CC(=O)Nc2ccn(C)n2)C1=O | 3% | -0.35 | – |
| CC[C@H](OC1CCCC1)C(=O)Nc1ccn(C(C)(C)C)n1 | -9% | 1.13 | – |

| Structure (SMILES) | % Inhibition | Z score | % Inhibition (2 µM) |
| --- | --- | --- | --- |
| Cc1nonc1CC(=O)Nc1ccc(C(F)F)nc1 | 0% | 0.01 | – |
| COC(=O)c1cc(C2CC2)nc2c1c(=O)n(Cc1ccc(C)cc1)c(=O)n2C | -11% | 1.52 | – |
| CCOCC(=O)NCC1CCC(c2nc3ccccc3[nH]2)CC1 (stereo not drawn) | -14% | 1.63 | – |
| CC1(C2CCCN(Cc3ccc4c(c3)CCC4)C2)NC(=O)NC1=O (stereo not drawn) | -8% | 1.26 | – |
| Cc1cc(S(=O)(=O)N[C@H]2CCN(C)C2)c(C)s1 | -22% | 2.79 | – |
| Cc1noc(C)c1S(=O)(=O)N1C[C@@H]2C[C@H](NC(=O)c3ccccc3)[C@H]1C2 | -15% | 2.5 | – |
| O=C(O)c1cc(C(=O)N2CCCC[C@@H]2CCCc2ccccc2)ccn1 | 7% | -0.81 | – |
| Cc1ccnc2c1NC(=O)CN2C(=O)COc1cccc(Cl)c1C | -16% | 2.01 | – |
| Cc1n[nH]c(C(=O)N2CCn3nc([C@@H](O)c4ccnn4C)cc3C2)c1Cl | -7% | 1.28 | – |
| CCOc1ccc(S(=O)(=O)N2CC=C(c3c(C)n(Cc4ccc(Cl)cc4)c4ccccc34)CC2)cc1 | -11% | 1.48 | – |
| O=C1CN(S(=O)(=O)c2ccccc2C(F)(F)F)CCN1c1ncc(F)cn1 | 18% | -2.31 | – |
| CCCCn1nnnc1Cn1cncn1 | -6% | 0.68 | – |
| CC(C)[C@@H]1CCO[C@@H]1c1nc(-c2ccc3[nH]c(=O)[nH]c3c2)no1 | -9% | 1.34 | – |
| O=C1NCCC[C@@H]1Oc1cccc(C(F)(F)F)n1 | -1% | 0.08 | – |
| O=C(NCCc1ccco1)[C@H]1CCCN(c2nc3ncccc3n3cccc23)C1 | -21% | 2.39 | – |
| CC(=O)N[C@H]1C[C@H]2CN(Cc3ccccc3OC(C)C)CC(=O)N2C1 | -20% | 1.79 | – |
| O=C(Nc1ccc2c(c1)OCCO2)N1CCC[C@@H]1Cc1noc(-c2cnccn2)n1 | -14% | 1.88 | – |
| Cc1cc(N2CCC[C@@H]2CN2CCOCC2)nc(C(C)C)n1 | -7% | 0.94 | – |
| CCC(C)N(CC(=O)O)C(=O)C(C)c1cccs1 (stereo not drawn) | -5% | 0.57 | – |
